This passage reports self-cleavage results from the RNAGym collection of RNA variant scans (doi:10.7554/elife.90254).

To fix the notation:
B1: LINE1-mini (parent)
chain: GGCAGAGCUCAACACAGCGUGGCAAAGUGGCUGUGGCUAGACUGCC

Read counts are not given, so values of variants with three or more changes are uncertain.

Variants of B1 are the subject of the series. Nature of the series: self-cleavage, relative activity (ratio to wild type); higher = more cleavage; in vitro, sequencing; the parent is a self-cleaving ribozyme.
With G1U G19U A25G G44U, the self-cleavage was 0.4.
To C8G C13A G17U belongs 0.05; to G5U U20C C42U, 0; to G5C G17C G22A, 0.06.
To A14C C37G C46U belongs 0.05.
Under C18U U20G G33U stands 0.02; under A24U U28A U32G, 0.03; under G17U G22A A41C U43C, 0.02.
In the case of G2U A4G C8U U9A A12C A24G, the self-cleavage came out at 0.04.
Under G2U C8A G19C U20C stands 0.04; under C8A U20A A25U U34C, 0.15; under U9C C10U C13A U34C C42G, 0.04.
Under U20G U32G A39U stands 0.07; under A6U C31U G35C C45A, 0.17; under G1C G22C U38G, 0.
Regarding G1U G7A G29U C46A, the self-cleavage came to 0.08.
Under G1C C3A G5A G40U stands 0.14; under A24C A25U G29A, 0.61; under G2A G40A A41G C45A, 0.04.
Under C3A U9A G22C C31G stands 0.19.
To A16C G29U G30C G44A belongs 0.04; to G5U G33U G35U, 0.04; to A16G G27C U38A, 0.04.
On to G2U C3U U34A C37A G40U, for which the self-cleavage is 0.01.
For the variant G2U C23A G36C G40A, the self-cleavage is 0.02.
To A4G G5U U34A U43G belongs 0; to C13U A14U G19U G27U A41U G44U, 0.03; to A14U A16C G29A C45U, 0.26.
As for A25G U34G C37U, the self-cleavage is 0.15.
Turning to G2A A6U C23U, the self-cleavage worked out at 0.33.
To C15A C23G G29U A41C belongs 0.02.
With C8A G35A A39C G40C U43C C45A C46G, the self-cleavage stood at 0.
On to G27A C42A C45G, for which the self-cleavage was 0.05.
On to C18A U32G C45A, for which the self-cleavage is 0.03.
Under A4U C18G G29U stands 0.07; under G1C G5U G33U C37U C45A, 0.01.
Under A16G G19U C23G G27U stands 0.09.
Under G2A G29U G33U stands 0.13.
On to G2U C15U C18U G19U, for which the self-cleavage was determined as 0.05.
Under A4C G5A C37A stands 0.17; under A6U G35A U38G, 0.01; under G1A C3G G21U G30U G33U, 0.82.
Under G22C U34C C42U stands 0.02.
Under A12U C31A G33U stands 0.05; under A12U C13U C42U, 0.05; under A4U G5U C18U, 0.12.
Consider A24U G29U G33A A39U, for which the self-cleavage came out at 0.03.
To U20A G30A U32G U38A belongs 0.06.
As for A16G C37A G44C, the self-cleavage turned out to be 0.04.
Regarding A6G C13U C46A, the self-cleavage turned out to be 0.08.
To C10U U20A C23U A25G A26G G29U belongs 0.05.
As for A11G G33C U34G U43A, the self-cleavage is 0.05.
Under A11C U38C G40A stands 0; under A16G U34G G36U A39G G44A, 0.03.
To C8A C10U C31G belongs 0.03; to C13A U32A C42A, 0.05.
To G21A C23A U34G G44A C45G belongs 0.05.
On to A4G C10A C13A, for which the self-cleavage was 0.02.
Under G5U G17A C37A stands 0.03; under G1U A4G C10G C15G, 0; under U20G G30U A41C, 0.02.
To G27U G30C G40U belongs 2.38.
Under G17A G19C G27C stands 0.42; under U9G G19C A25G U34G A39U, 0.01; under G5A A12U C13U G19U U38C, 0.32.
Turning to G5U A16G C23A, the self-cleavage was 0.04.
To A12U C15G G33A G35A belongs 0.01; to G7C A26C C45A, 0.02; to A26C C42U C46A, 0.12.
To G2U C3U C10A G30U C37A belongs 0.03; to G5U G21U G33U C37U, 0.03.
Under C3U C8U C10U C13G A39G C45A stands 0.01; under C10G C13A A14C A16C, 0.02.
As to A25C G35A U38A, the self-cleavage was 0.2.
Consider C3U U20A A39U G40A, for which the self-cleavage was 0.09.
To G2A A6G A11U U43C G44A belongs 0.02; to A4C C13G G21U, 0.09.
To A12C G17A C45A belongs 0.04.
Under G5C C8A A24U G29U stands 0.34; under A6U U9C A12U A24C A39C, 0.03.
On to G7U C15A C37A, for which the self-cleavage came out at 0.25.
Take A12C G19C G36A: the self-cleavage amounted to 0.04.
To A12U G29U U38G belongs 0.02; to G1U A14G C15A C18G A25C, 0.02.
Under U9A C42A G44U stands 0.54.
To A4C G5U C8A U43A belongs 0.11; to G22C A39U C46A, 0.05.
Consider C8A A16G G17U, for which the self-cleavage amounted to 0.23.
C3U C10A A24G G33C: the self-cleavage is 0.06.
G5A A25C A39G G40U C45U: the self-cleavage is 0.03.
To G5U A24G G30A G35U belongs 0.02; to G35C A39G C42A U43G, 0.09; to G2C C23A A39C A41U, 0.11.
Under C3U G19C G40A U43C stands 0.02; under A4C G7A U9G A11U A12G G17C, 0.01; under C13U U28G G36U G40U C42G, 0.01.
On to C10U C15A G29C G36C C45G, for which the self-cleavage is 0.
To A12C G19U G21C U43A belongs 0.01; to G1U C13U U28C, 0.08; to G1C C15A U20C A26G G27U G44U, 0.01.
Under G5A U9A U32A C37G C42U stands 0.1; under C3A G33A C46G, 0.25.
To C8U A26C U38G belongs 0.01.
As for C13A A16U C23G U43A, the self-cleavage amounted to 0.14.
With A14U C15G C46U, the self-cleavage came out at 0.02.
Under C8A C23U G33U G36C stands 0.03.
To U9G G21C C31G U38G G44U belongs 0.01.
For G1U G21C C23A G29U, the self-cleavage came to 0.27.
To G2C G17A G33C belongs 0.02.
To G7A U20C G22U U28A C37G G40C belongs 0.03; to C18G A24U A26U, 0.07; to G7C A11C C13G C15U G19A G22U G36A A39C G44A, 0.02.
To G2U G7C G19U G35C A39C belongs 0.08; to G1A C10A U20C A41U, 0.02.
On to A16C G19U G36A, for which the self-cleavage was 0.12.
Under G2U G19U G29A G30U U38G C45U stands 0; under G2C C10U G22A, 0.11; under G1U A11C C13A U32C, 0.
Take C3G A14U G30C: the self-cleavage came out at 0.05.
To A11U U32A G40C belongs 0.02; to A12G G21C G22C, 0.01; to U9C C18G A26G U28C U38C A39C C46U, 0.01.
Under A4G G22C C46G stands 0.04; under C8A G21A G35C U43G, 0.38.
Under C8A C18A C23G G44A stands 0.29; under C8U C13U U43A, 0.09; under G5U U9A A12C G17U, 0.02.
Regarding A25C U28C U32G C37U, the self-cleavage stood at 0.06.
To A4C A6C A16C belongs 0.14; to G5U A14C A26C, 0.05.
As to C10G G27U U38C, the self-cleavage stood at 0.01.
Under G1U G2A C10A G40A stands 0; under A6G C15U C31A, 0.11; under G2C G5C G22U A24U A39U G44U, 0.02.
Under C8U A16C G17U C31A stands 0.04.
Regarding C8A U9C U28A, the self-cleavage worked out at 0.06.
For the variant C8U C13U C15U A16G G29C, the self-cleavage is 1.23.
As to G19U U38C A39U, the self-cleavage stood at 0.16.
Under A4C A6C A26C U32G C46U stands 0.02; under C10A A11C U20G, 0.04.
Under A14G G22A C45A stands 0.26; under A6C A11U C13U A39U, 0.06.
To G2A C18A C23G A41U belongs 0.12; to C3A A6C C10A U34A, 0.04; to C8G C15U G36U C46A, 0.09.
As to C3U U20A G21A G22A U43A G44A C45A, the self-cleavage was 0.01.
Regarding G2U A4C C37A, the self-cleavage turned out to be 0.15.
Under G19A G22U C31A G40C stands 0.03; under C3A A11G C18U, 0.02.
To C8U U9G G22U belongs 0.02.
To G22U C31A U32C G35A belongs 0.09; to A11U A16C G21C G29A G44A, 0.02.
Consider G17C G19C C45G, for which the self-cleavage is 0.31.
Under G17A C18A A26U C31A stands 0.03; under C8U G17C G21U C23G, 0.02.
Under A16G C18G G19U A24C G27C stands 0.01.
Under A14U G30C C37A stands 0.1.
Turning to A4U A6G C10A, the self-cleavage is 0.02.
To G5U G21U C31A U34G belongs 0.02.
Under G7C C10U A12U G29A C42A C45U stands 0.01; under A4G A12C U38A, 0.03; under G27C U38G A41C, 0.03.
To A14C C42U C46A belongs 0.06; to A14C G21A U38G, 0.
Consider G5U C13U A24C G29U, for which the self-cleavage was 0.02.
Turning to G5C C13U G17C, the self-cleavage amounted to 0.03.
U28A G35U C45U C46U: the self-cleavage is 0.19.
